Experimental data published in the supplement of paper PMC11417369.
± gives the standard deviation of the averaged measurements. This is one part of the list.

Test system: PfAP2-EXP AP2 domain (GST-tagged)
Assay: gcPBM binding intensity (ln(normalized median fluorescence intensity)); higher = stronger DNA binding
Outline: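 Binding intensity is the highest Masliner-normalised natural-log median intensity over replicate spots in either probe orientation. To obtain it, GST-tagged P. falciparum DNA-binding domains made in E. coli were incubated for 1 h on an Agilent 4 × 180k array of primer-extended double-stranded 36-bp intergenic genomic probes plus negative controls. Detection used Alexa488 anti-GST antibody with scanning at 488 nm.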

Row | Sequence | gcPBM binding intensity (ln)
1 | TTTATACTATAATTATGTACTTATAAAAGGAATAAA [XGTACX_site8027] | 8.48 ± 0.39
2 | TATATAAATATACATTGTACTCAACATTTTCATTAA [XGTACX_site3690] | 8.47 ± 0.38
3 | ATGTAAATACATATATGTACACAAATATATATATAT [XGTACX_site3537] | 9.8 ± 0.35
4 | ATAAACACATCTATATGTACATATATATATATATAC [XGTACX_site347] | 8.79 ± 0.29
5 | TGTATTAATAAAAATACACACATCATATTATAGAAA [CACACA_site7629] | 8.4 ± 0.33
6 | ATATATATATAAATATGTACATATATATATTATATA [XGTACX_site120] | 9.35 ± 0.042
7 | TATAAGATTATACAAAGTACATATAAATAATATATT [XGTACX_site1917] | 8.24 ± 0.33
8 | TGAAATAAAAAATATAGTACTCGTTCGTAACCAAAA [XGTACX_site413] | 8.5 ± 0.31
9 | ATGGGTTAAAAATGCACACAAAAAAATATACAGATA [CACACA_site4321] | 8.92 ± 0.42
10 | TCCTCTTTTATTTTTACACACGCGTAAACATATATA [CACACA_site667] | 9.1 ± 0.49
11 | TTAAAAAAAGATTATACACACACATATATAAACATA [CACACA_site8136] | 8.6 ± 0.42
12 | ATTTATCCAAAAAAATGTACAGGATAATTTGTTCAT [XGTACX_site7737] | 8.58 ± 0.28
13 | TATTATGCCTTTAATATACACACTAATATTTTTTTG [CACACA_site2045] | 8.57 ± 0.31
14 | CATAATACCTATAACACACACAATTATACATAAACT [CACACA_site7506] | 8.69 ± 0.49
15 | TATAAAAATTAATATTGTACGTTTTATGAAAATAAA [XGTACX_site8237] | 8.3 ± 0.32
16 | GGGTTCAATTTAAAGAGTACAAAAAATGTAGGTCAT [XGTACX_site5290] | 8.78 ± 0.38
17 | TTTTAATAAACAAAACGTACACATTATTATTATATA [XGTACX_site335] | 8.36 ± 0.12
18 | TTTGTAGTTTGCACATGTACACATTTCAAAATAAAG [XGTACX_site7568] | 8.6 ± 0.2
19 | AGAGAGAAAGTTATAACATGCAACAATTTTTAGAAC [TGCATGCA_site96] | 9.15 ± 0.38

Row | Sequence | gcPBM binding intensity (ln)
20 | TTTTTTTTTTTGTGGGTGCGTTTATAAAAACAGGAA | 9.14 ± 0.26
21 | TTTTTTTCTTGTTTTAAATAATATACTGGAAAAAAA [CACACA_negctrl_site585] | 8.22 ± 0.59
22 | AATATATACATATATTGTACATATAGTTTCTTGCAT [XGTACX_site7871] | 8.61 ± 0.33
23 | TTTCCATATTGTGGATGTACGTTTTGAGGTTTTTAC [XGTACX_site3362] | 8.51 ± 0.52
24 | ATATATATTTCTTAAAGTACATAATAATAAAAATAT [XGTACX_site8981] | 8.52 ± 0.4
25 | AAAGCACCCAGGCACACACACAAAGGAAAAGAAAAA [CACACA_site232] | 8.54 ± 0.4
26 | ATAATTATTAAGAGAACATGCAAAATATATATGTTT [TGCATGCA_site503] | 8.9 ± 0.33
27 | AATACAATAAAATAGTGTACATATATATTATGTATA [XGTACX_site8258] | 8.39 ± 0.3
28 | ATATATATATATATTTGTACGTATTATGTATTTTTT [XGTACX_site3530] | 10 ± 0.53
29 | GAATAAATTAAAAACGCATGTATCATTACTACATAA [TGCATGCA_site111] | 8.37 ± 0.33
30 | TTTATATTATACTATACATGCATATAATAAAGGTCA [TGCATGCA_site934] | 8.68 ± 0.17
31 | TTAAAATATGATATATGTACATAATTACTAAAAACA [XGTACX_site276] | 8.65 ± 0.35
32 | ATTTTATTTTTTTGTGATAATTGATTTATATATTGT [TGCATGCA_negctrl_site563] | 8.47 ± 0.4
33 | AATAGAATAATCCTTACACACACACGCGCACGAATA [CACACA_site6365] | 8.65 ± 0.49
34 | TATATATTACATTGTTGTACATATATATTATATATA [XGTACX_site60] | 8.45 ± 0.29
35 | ATTATTTCTTTGTGATGTACAAATAAACATGTTGGT [XGTACX_site5636] | 8.62 ± 0.37
36 | TAAATATATATATATTGTACAAAACAAATGTGAATT [XGTACX_site696] | 8.96 ± 0.28
37 | TTAAAAATATTATGTACACACATTTTAGATATTTGT [CACACA_site1846] | 8.27 ± 0.24
38 | TAATTAAAATCATATACACACCCATATATATATATA [CACACA_site8524] | 10 ± 0.25

Row | Sequence | gcPBM binding intensity (ln)
39 | TCCTAATATTTGTCAAATTTCAAAATAAATAAAATG [XGTACX_negctrl_site540] | 8.3 ± 0.45
40 | CATATTTTTTCTTAAACACACACATATATATATATA [CACACA_site8920] | 10.1 ± 0.41
41 | TTAAAAAAAAAAAAAAGTACATAAGTATATATAATA [XGTACX_site4295] | 8.43 ± 0.45
42 | TATATATATATGTACACACACACATATAAATAAATA [CACACA_site443] | 9.91 ± 0.4
43 | TAAAAGGGGATATATGAACACACAAAAAAAAAATAT [CACACA_site8940] | 8.79 ± 0.7
44 | TAAATGTTTCTCAAAAGTACACATGTGATATTTCTT [XGTACX_site2065] | 8.39 ± 0.35
45 | ATATTAAGTTTTATTACACACTCTCAATTTTTATTT [CACACA_site4206] | 8.68 ± 0.3
46 | ATATATTTCTGTCAAGCACACATAATATTAATATAT [CACACA_site7993] | 8.86 ± 0.45
47 | AATGATACTTAGGGGCATGTCTCTGGGGGCATAACC [CACACA_negctrl_site591] | 9.54 ± 0.4
48 | TACAAATATAGATGCACACACATATAGGTATATGTG [CACACA_site7439] | 8.4 ± 0.45
49 | TATATATAATTATAAGAACACACATATATATATATA [CACACA_site8786] | 10.2 ± 0.18
50 | GTTATAAACAAAATAAATATATGAATATATAATAAT [XGTACX_negctrl_site96] | 8.35 ± 0.11
51 | CATATTATATTTTCATGTACACATAACATATTTATA [XGTACX_site4787] | 8.69 ± 0.19
52 | ATATAGTAAATGTTCACACATACAAATATATATATA [CACACA_site5518] | 9.56 ± 0.26
53 | AAGTTTTCTTAAAGCTGTACTTTTTAAAAATAAAAT [XGTACX_site7716] | 8.12 ± 0.36
54 | CATAAATACAGATATACACACATATATATATATATA [CACACA_site4528] | 10.1 ± 0.38
55 | TTTAACATAAATTAAACACACAATAAAATACATTAA [CACACA_site6699] | 8.54 ± 0.44
56 | GAGGTACATTAATTAGTGCATTAAAATTTTTATCCT | 9.01 ± 0.29
57 | ATAATACATATAGAAGGTACACTATTATTTTCCTGA [XGTACX_site903] | 8.43 ± 0.34
